Here are results for one molecule from EP4695453A1 (dated 2026).

For this assay, the target named is T1, Recombinant human CD137-His (human, UniProt Q07011 24-186).
T1 construct: Coated at 2 ug/mL on the ELISA plate; not shown: His tag
As to the kind of experiment: ELISA, plate-coated human CD137-His, anti-human IgG (Fc specific)-HRP. In general terms: ELISA stands for enzyme-linked immunosorbent assay.

T1 sequence (Q07011 24-186 limits assumed): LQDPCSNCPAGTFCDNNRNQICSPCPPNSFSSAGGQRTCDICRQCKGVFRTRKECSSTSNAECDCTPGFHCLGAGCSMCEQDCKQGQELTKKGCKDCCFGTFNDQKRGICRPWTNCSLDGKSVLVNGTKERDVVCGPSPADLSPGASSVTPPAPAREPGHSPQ

B1: TY28974 (Fc fusion)
chain: EVQLLESGGGEVQPGGSLRLSCAASGFSFSINAMGWYRQAPGKRREFVAAIESGRNTVYAESVKGRFTISRDNAKNTVYLQMSSLRAEDTAVYYCGLLKGNRVVSPSVAYWGQGTLVTVKP[skipping human IgG1 Fc]
notes: VHH single domain antibody (CD137-targeting VH domain of INBRX-105) without masking peptide, fused to a human Fc domain; also called parental VHH-Fc antibody; anti-CD137 VHH-Fc antibody
For the molecule B1, the binding result is “binds”.
